Data: publication PMC4336329 (PLoS ONE, 2015)
Among all 310,000 compounds or so, about 14,000 (4.5%) showed an effect of 50% or more. Effects have a minus sign here. The list shows a part of the results.

Each compound was assayed against human ether-à-go-go-related gene (hERG) potassium channel (human, UniProt Q12809) (assay: primary screen, population patch clamp on CHO cells stably expressing hERG).
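Note: peak tail current of the secondary pulse compared with the same well before compound.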

Sequence of human ether-à-go-go-related gene (hERG) potassium channel (Q12809 whole entry, looked up): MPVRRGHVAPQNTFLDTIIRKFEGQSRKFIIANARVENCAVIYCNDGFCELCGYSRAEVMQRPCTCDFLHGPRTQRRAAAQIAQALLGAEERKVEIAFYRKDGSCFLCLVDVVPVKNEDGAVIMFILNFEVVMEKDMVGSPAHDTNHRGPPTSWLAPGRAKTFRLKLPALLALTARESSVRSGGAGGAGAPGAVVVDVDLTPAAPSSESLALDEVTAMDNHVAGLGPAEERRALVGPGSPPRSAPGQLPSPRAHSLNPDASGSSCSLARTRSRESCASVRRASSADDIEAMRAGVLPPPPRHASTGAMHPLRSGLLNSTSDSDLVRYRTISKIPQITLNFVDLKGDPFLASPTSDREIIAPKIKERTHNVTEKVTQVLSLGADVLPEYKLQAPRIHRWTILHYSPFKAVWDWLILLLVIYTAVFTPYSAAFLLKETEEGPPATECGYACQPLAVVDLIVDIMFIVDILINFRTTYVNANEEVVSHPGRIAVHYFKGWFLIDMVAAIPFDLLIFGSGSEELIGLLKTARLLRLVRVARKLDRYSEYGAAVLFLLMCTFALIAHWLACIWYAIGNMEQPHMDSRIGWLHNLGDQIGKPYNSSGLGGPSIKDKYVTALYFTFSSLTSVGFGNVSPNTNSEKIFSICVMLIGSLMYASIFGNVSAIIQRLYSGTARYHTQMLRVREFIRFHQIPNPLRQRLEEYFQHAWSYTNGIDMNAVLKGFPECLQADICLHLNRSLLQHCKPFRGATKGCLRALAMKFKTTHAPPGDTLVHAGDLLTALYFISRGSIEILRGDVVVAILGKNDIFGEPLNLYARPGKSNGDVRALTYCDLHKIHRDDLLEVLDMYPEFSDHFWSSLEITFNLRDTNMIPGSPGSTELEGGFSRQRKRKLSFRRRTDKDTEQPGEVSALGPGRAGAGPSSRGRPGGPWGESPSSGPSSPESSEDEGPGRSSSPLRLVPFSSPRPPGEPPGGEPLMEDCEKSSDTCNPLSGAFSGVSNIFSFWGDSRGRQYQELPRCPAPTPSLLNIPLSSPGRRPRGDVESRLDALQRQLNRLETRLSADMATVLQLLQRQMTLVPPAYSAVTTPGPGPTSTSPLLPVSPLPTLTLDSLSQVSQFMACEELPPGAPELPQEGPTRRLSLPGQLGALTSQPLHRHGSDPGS

SMILES | hERG current change (%, negative = inhibition) at 10uM
O=C(CC1C(=O)NCCN1Cc1cccc(C(F)(F)F)c1)NC1CCCCCC1 (stereo not drawn) | 5.99%
COC(=O)c1cn(-c2nc(C)c3c(n2)CCC3)nn1 | 16.5%
C(=C\CSc1ncn[nH]1)/CSc1ncn[nH]1 | -1.48%
CC(=O)Cn1nnc2sc(-c3ccccc3)cc2c1=O | 13.4%
O=C(NCc1cccc(C(F)(F)F)c1)C1CCC(=O)N(C2CCCCCC2)C1 (stereo not drawn) | -23.1%
COc1ccc(C2C(C(=O)NCCN3CCOCC3)c3ccccc3C(=O)N2C2CCCCC2)cc1 (stereo not drawn) | -13.4%
CCN1CCN(Cc2ccc(OCc3ccccc3)c(OC)c2)CC1 | -17.7%
COc1ccc(N2CCN(Cc3nc(N)nc(N4CCCc5ccccc54)n3)CC2)cc1 | -27.9%
CN(C)C(C(=O)Nc1cc(Cl)cc(Cl)c1)c1ccccc1 (stereo not drawn) | -3.96%
O=S(=O)(NCCCSc1ccccc1)c1ccccc1F | -79.6%
O=C(CSc1nnc(C2CC2)n1CC1CCCO1)Nc1ccc(Cl)cc1 (stereo not drawn) | -56.8%
COc1ccc(OC)c(NC(=O)C(=O)N/N=C/c2ccccc2[N+](=O)[O-])c1 | 5.79%
O=C(NCCCN1CCOCC1)c1ccc2nc(Cc3cccc(Cl)c3)oc2c1 | -7.7%
O=C(CC(Nc1ccc(F)cc1)C(=O)O)c1ccccc1 (stereo not drawn) | 12.5%
COc1cc(NC(=S)Nc2ccccn2)cc(OC)c1 | 0.145%
Cc1ccc(-n2c(C)c3c(C)nnc(C)c3c2C)cc1C | -34%
COc1ccc(C=C2C=C(C(C)(C)C)C(=O)C(C(C)(C)C)=C2)cc1OC | 20%
Cc1cc([N+](=O)[O-])ccc1NC(=O)CSc1nncn1-c1ccccn1 | -28.1%
COc1ccc(NC(=O)CN(C)C(=O)CNC(=O)c2sc3ccccc3c2Cl)cc1 | -49.6%
O=C(CCNC(=O)c1ccc(Br)cc1)Nc1cccc(S(=O)(=O)N2CCCC2)c1 | -32.7%
O=C(Oc1cccc(N2C(=O)CCC2=O)c1)C1CC(=O)N(c2ccc(Br)cc2)C1 (stereo not drawn) | -3.94%
Cc1ccccc1NC(=O)C(C)SCc1ccccc1 (stereo not drawn) | -6.37%
CSc1ccc(C2NN=C(c3ccccc3)S2)cc1 (stereo not drawn) | -32.7%

SMILES | hERG current change (%, negative = inhibition) at 10uM
COc1cc(OC)cc(C(=O)NN(CCC#N)C2=NS(=O)(=O)c3ccccc32)c1 | 14.8%
C=CCOC(=O)/C=C/C(=O)NC(N)=O | 14.6%
CCOC(=O)C(/C(N)=N/C(=O)Nc1ccccc1)=C(\C)O | 5.23%
CC(=O)c1c(C)[nH]c(C(=O)COc2ccc3c(C)cc(=O)oc3c2)c1C | 7.54%
CCOc1ccc(NC(=O)Nc2cccn(Cc3ccccc3)c2=O)cc1 | 13.7%
CC(C)(C)c1csc(NC(=O)Cc2cccs2)n1 | 6.32%
CC(C(=O)N/N=C/c1ccc(N(C)C)c(Br)c1)N(c1ccccc1)S(C)(=O)=O (stereo not drawn) | -1.12%
CCN1CCN(S(=O)(=O)Cc2ccccc2Cl)CC1 | 10.5%
CC(C)Cn1c(N)c(C(=O)NCC2CCCO2)c2nc3ccccc3nc21 (stereo not drawn) | -22.3%
COc1ccc(C(=O)NC(=S)Nc2ccccc2F)cc1 | 9.53%
Cc1ccc(NC(=O)CSC(C)C(=O)OC(C)C(=O)NC2CCCCC2C)cc1 (stereo not drawn) | -6.64%
COc1cccc(CC(=O)OCC(=O)NNC(=O)c2ccc(Br)cc2)c1 | -1.87%
Cc1nn(C)c(C)c1NC(=O)CCSc1nc(-c2ccco2)cc(C(F)(F)F)n1 | -5.5%
O=C(O)CCCNC(=O)CC1S/C(=N/N=C/c2ccccc2O)NC1=O (stereo not drawn) | 22.8%
CCN1CCN(Cc2cc(=O)oc3cc(C)cc(C)c23)CC1 | -68.1%
FC(F)Oc1ccc(/C=N/NC(=S)Nc2cc(C(F)(F)F)ccc2Cl)cc1 | 8.33%
O=[N+]([O-])c1ccc(Nc2cccc(F)c2)nc1 | 14%
Cc1cccc(-n2nnc(C(=O)NCc3ccccc3)c2N)c1 | -6.41%
CCOc1ccc2nc(SCC(=O)Nc3nonc3C)[nH]c2c1 | 14%
CCc1ccc(/C=N/NC(=O)c2cc(-c3ccncc3)nc3ccccc23)s1 | -5.07%
CC(C)CNc1nc(N)c([N+](=O)[O-])c(NCC2CCCO2)n1 (stereo not drawn) | -10.7%
COc1ccc(-c2cc(=O)oc3c(C)c(O)c(CN(C)C)cc23)cc1 | -18.9%
Cc1ccc(NC(=S)N2CCC(c3ccc(C)cc3)C2)cc1 (stereo not drawn) | 3.6%

SMILES | hERG current change (%, negative = inhibition) at 10uM
CCN=c1sc2ccccc2n1CC(O)COc1ccccc1 (stereo not drawn) | -44%
Cc1cc(NC(=O)CCC(=O)N(c2ccccc2)C(C)C(=O)NC2CCCC2)no1 (stereo not drawn) | 11.7%
C=CCNc1cc(N2CCCC2)ccc1[N+](=O)[O-] | 18.2%
O=C(Nc1nc2c(Cl)ccc(Cl)c2s1)c1ccco1 | 14.1%
O=C1CS/C(=C\[N+](=O)[O-])N1c1ccc(OC(F)(F)F)cc1 | -2.61%
Cc1nc(C(F)(F)F)ccc1C(=O)Nc1ccc(C(F)(F)F)cn1 | 4.72%
Cc1nnc(C)c2c(C)n(-c3ccc4ncccc4c3)c(C)c12 | -21.5%
CC(C)(C)NC(=O)C(c1ccc(F)cc1)N(CCc1ccccc1)C(=O)c1ccn[nH]1 (stereo not drawn) | -10.3%
O=C(Nc1ccc(C(F)(F)F)cc1)c1cccnc1N1CCOCC1 | -11.6%
CCOC(=O)c1c(C)[nH]c(C(=O)OCc2ccc(F)cc2)c1C | -0.855%
Cc1cccc(NC(=O)CCN2CC(C)CC(C)C2)c1.Cl (stereo not drawn) | -49.2%
Cc1cccc(C)c1NC(=O)C(NC=O)c1ccccc1 (stereo not drawn) | -64.1%
O=C(c1ccccc1)N1CCCC(c2ccc(Cl)cc2)=N1 | 5.35%
CCCCNC(=O)Oc1c(Br)cc2sc(=O)oc2c1Br | 8.56%
N#CC1=C(N)NC(SCc2ccc(F)cc2)=C(C#N)C12CCCCC2 | -8.87%
Cc1nn(C)c(C)c1NC(=O)c1ccc(Br)o1 | 5.89%
CCOC(=O)N1CCC(N2Cc3cccc(C(=O)Nc4ccc(CC)cc4)c3C2=O)CC1 | -42.6%
Cc1ccc(N=Nc2c(O)[nH]c(=O)[nH]c2=O)c([N+](=O)[O-])c1 | -5.68%
COCCCNS(=O)(=O)c1ccc(C)cc1 | 4.42%
Cc1ccc(CNC(=O)C2CCC(=O)N(CCCN3CCOCC3)C2)cc1 (stereo not drawn) | 19%
COc1ccc(C2Nc3cccc4cccc(c34)N2)cc1 | 7.31%
O=C(Cn1c(=O)n(-c2ccccc2)c(=O)c2sccc21)N1CCCC1 | 3.63%
COc1cccc(-n2c(SCC(=O)NC3CCS(=O)(=O)C3)nc3ccccc3c2=O)c1 (stereo not drawn) | -5.65%

SMILES | hERG current change (%, negative = inhibition) at 10uM
CC1Cc2cc(/C(O)=C3/C(=O)C(=O)N(CCCn4ccnc4)C3c3ccc(F)cc3)ccc2O1 (stereo not drawn) | 6.51%
C/C(=N/NS(=O)(=O)c1ccc(C)cc1)c1cccc(NC(=O)c2cccc(Cl)c2)c1 | -0.128%
CN(C#N)c1nccc(-c2cccs2)n1 | -13%
CCOc1ccc(C(=O)N2CCN(c3ccccn3)CC2)cc1OCC | -0.22%
COc1ccccc1CC(=O)Nc1ccc(S(=O)(=O)N2CCCC2)cc1 | -5.62%
CC(=O)Nc1cccc(Oc2ncccc2[N+](=O)[O-])c1 | 10.7%
COC(=O)c1c(NC(=O)CSc2nnc(-c3ccco3)n2C)sc(C)c1C | -23.5%
COCCn1c(SCC(=O)N2CCCC2)nnc1-c1ccco1 | 18.6%
Cc1nn(C)c(C)c1C(C)NC(=O)c1cc(COc2cncc(Cl)c2)on1 (stereo not drawn) | 23.4%
O=C(COC(=O)Cc1ccc(Br)cc1)Nc1c(F)c(F)c(F)c(F)c1F | 13.4%
O=C(Nc1cc2c3c(c1)CC(=O)N3CCC2)c1c(F)cccc1F | 6.97%
CCc1nnc(NC(=O)CSc2nnc3c(C)cc4c(C)ccc(C)c4n23)s1 | 10.3%
COC(=O)c1ccc(-n2nc(C(F)(F)F)c3c2-c2ccoc2CC3)cc1 | 19.9%
COc1ccc(NC(=O)CCNS(=O)(=O)c2ccc3[nH]c(=O)oc3c2)cc1Cl | -47.6%
Cc1c(C(=O)Nc2nccs2)oc2c(Cl)cccc12 | 9.58%
CCN(CC)CCN(Cc1cc2cc(C)cc(C)c2[nH]c1=O)C(=S)NCc1ccco1 | -52.5%
COC(=O)c1ccc(CSc2nc(N)cc(N)n2)cc1 | -9.79%
O=C(Nc1ccc(F)cc1)C(=O)C1C(=O)Nc2ccccc21 (stereo not drawn) | -14.9%
O=C(CCc1nnc(COc2ccccc2)o1)NCc1ccccc1C(F)(F)F | 4.39%
CC1CC(C)CN(C(=O)CSc2nnc(-c3ccc(Cl)s3)o2)C1 (stereo not drawn) | -5.96%
CCCc1nn2c(N)c(/C=C3\C=Nc4ccccc43)c(=O)nc2s1 | 15.8%
